Experimental data from PubChem BioAssay AID1671188 (National Center for Advancing Translational Sciences (NCATS), 2021).
Several values for one entry are separate records, joined by “and”; a condition that tells them apart may be missing. Equal entries are not always repeated. Screen size: about 100,000 compounds; about 250 (0.25%) were called active. Inconclusive means that the source gave no clear call. Such entries were picked first, then a sample of the others. Calls follow the shape of the dose curve; as a rule, active = well fitted inhibition curve with a large enough effect; inconclusive = small, poorly fitted or top-dose-only effect; inactive = flat fitted curve, though single readings scatter. Potencies beside an inconclusive call are fits to weak or partial responses and may not hold up.

Target: Alanine aminotransferase 2 (Homo sapiens) (UniProt Q8TD30)
UniProt Q8TD30, sequence (Q8TD30 whole entry, looked up): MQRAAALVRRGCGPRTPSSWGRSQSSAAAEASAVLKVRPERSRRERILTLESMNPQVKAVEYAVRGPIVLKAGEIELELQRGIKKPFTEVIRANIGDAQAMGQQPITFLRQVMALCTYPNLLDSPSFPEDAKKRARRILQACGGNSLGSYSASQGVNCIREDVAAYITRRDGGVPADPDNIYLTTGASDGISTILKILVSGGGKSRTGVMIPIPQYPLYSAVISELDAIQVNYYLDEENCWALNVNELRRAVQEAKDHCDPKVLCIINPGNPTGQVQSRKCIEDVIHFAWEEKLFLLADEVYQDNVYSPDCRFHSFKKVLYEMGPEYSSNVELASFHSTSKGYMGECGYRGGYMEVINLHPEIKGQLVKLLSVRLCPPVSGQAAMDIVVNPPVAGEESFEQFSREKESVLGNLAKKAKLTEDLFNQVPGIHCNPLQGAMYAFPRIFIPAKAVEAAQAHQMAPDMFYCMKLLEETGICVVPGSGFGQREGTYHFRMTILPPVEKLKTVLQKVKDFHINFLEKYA
Assay: Primary qHTS assay for inhibitors of Glutamate pyruvate transaminase 2 (GPT2); also: nearly all actives have a fitted effect of over 60% in size
Conditions: Recombinant GPT2, coupled pyruvate oxidase/HRP Amplex Red fluorescence; activity change, negative = inhibition: at 57.7 µM (top of the series) unless noted; series mostly up to 57.7 µM
Procedure, shortened: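 Fluorescence of coupled pyruvate oxidase/HRP/Amplex Red system (50uM Amplex, 30 min, dark) reports pyruvate formed by GPT2. Enzyme reaction: 10ng/uL GPT2, 2mM L-alanine, 250uM a-KG, 30 min room temperature, pH 7.5; 50uM AOA control.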
% is scaled to controls: 0 for no effect and ±100 for the full control effect; potency is read from the fitted curve at half-maximal effect; tags tell the direction and shape of the fitted curve.

Compound | activity change, negative = inhibition | Potency
COc1ccccc1OC1(C(=O)O)CCN(Cc2cnn(C)c2C)CC1 | inactive: 0.259% [at 11.5 µM] | 
O=C(NCCCc1ccccc1)c1n[nH]c2c1CN(C(=O)c1ccccc1F)CC2 |  | inactive
O=C(c1ccc2c(c1)CC(=O)N2Cc1ccccc1)N1CCN(C2CCCCC2)CC1 |  | inactive
O=c1n(-c2ccc(C(F)(F)F)cc2)nc2n1CCN(Cc1ccsc1)C2 |  | inconclusive: 5.01 µM [inhibitor, full curve]
Cc1ccc(CN2CCC(CNC(=O)NC(C)C)C2)cc1C (configuration not stated) |  | inactive
CCn1cc(S(=O)(=O)N2CC3(CCCCC3)CC2COc2ccc(OC)cc2)cn1 (configuration not stated) |  | inactive
Cc1cccc(C(=O)N2C[C@@H](Oc3ccccc3)C[C@H]2C(=O)N2CCCC2)c1 |  | inconclusive: 7.08 µM [inhibitor, single point]
COc1ccc(CCC(=O)N2CCC3(CCC3OC)CC2)cc1 (configuration not stated) |  | inactive
Cc1ccc(-c2cc3c(=O)n(CCNC(=O)c4ccccc4F)ccn3n2)c(C)c1 |  | inactive
O=C(Nc1ccccc1)N[C@H]1[C@H](O)[C@@H](N2CCOCC2)[C@@H]2OC[C@H]1O2 |  | inconclusive: 11.2 µM [inhibitor, single point]
O=C(c1cccs1)N1CCC(N2C(=O)[C@H]3CN(Cc4ccccc4)C[C@H]3C2=O)CC1 |  | inactive
CN1CCc2cc(O)c(O)cc2C(c2ccccc2)C1 (configuration not stated) |  | inconclusive: 39.8 µM [inhibitor, single point]
CC(=O)NC1(C)CCN(Cc2cccc(-c3ccc(N4CCOCC4)cc3)c2)C1 (configuration not stated) |  | inactive
CCCc1noc(-c2ccn3c(CNC(=O)Cc4cccc(OC)c4)nnc3c2)n1 |  | inconclusive: 6.31 µM [inhibitor, full curve]
CCOc1ccc(NC(=O)Cn2ccn3nc4c(c3c2=O)CCCC4)cc1 |  | inconclusive: 39.8 µM [inhibitor, single point]
CCCNC(=O)N1CC(c2noc(C3CCCN3CC3CC3)n2)C1 (configuration not stated) |  | inconclusive: 4.47 µM [inhibitor, single point]
O=C1NCCCCCCN(C(=O)c2ccncc2)[C@H]2C[C@H](c3nc(-c4cnccn4)no3)C[C@@H]12 |  | inactive
O=C1Nc2ccccc2CN(Cc2ccc(Cl)cc2)C12CCNCC2 |  | inconclusive: 25.1 µM [inhibitor, single point]
CCC(=O)Nc1ccc(-c2c(-c3ccc(F)cc3)nn(-c3ccc(F)cc3)c2OC(C)=O)cc1 |  | inconclusive: 39.8 µM [inhibitor, single point]
COc1ccccc1-c1ncc2c(n1)OCCN(c1cccc(C(F)(F)F)c1)C2=O |  | inconclusive: 31.6 µM [inhibitor, single point]
Cc1ccccc1-c1cnc2n[nH]c(-c3ccc4c(c3)OCO4)c2n1 |  | inconclusive: 6.31 µM [inhibitor, partial curve, poor fit]

Compound | activity change, negative = inhibition | Potency
O=C(NCc1cccc(C(F)(F)F)c1)c1nc2sccn2c1-c1ccc(F)cc1 |  | inactive
COc1nc2nc(CCc3ccccc3)n(C)c2cc1-c1ccnc(C)c1 |  | inactive
C[C@@H]1CN(C(=O)Cc2cc(F)cc(Cl)c2)CC[C@]1(C)O |  | inconclusive: 35.5 µM [inhibitor, single point]
NC1CCC(n2cc(C(=O)NCc3cc(-c4cccnc4)no3)nn2)CC1 (configuration not stated) |  | inconclusive: 7.08 µM [inhibitor, single point]
COc1ccc(F)cc1-c1cccc(C(=O)NCCNC(=O)c2ccccc2C)c1 |  | inactive
O=C(CCCc1ccccc1)N1CCCC(CN2CCCC2)CC1 (configuration not stated) |  | inconclusive: 14.1 µM [inhibitor, partial curve, poor fit]
CC1=C[C@@H](CNC(=O)c2ccccn2)[C@H](C(C)C)C[C@H]1CC(=O)N1CCCC1 |  | inactive
COc1ccc(-c2cn(C)c(=O)n3cc(CN4CCNC(=O)C4)nc23)c(C(F)(F)F)c1 |  | inconclusive: 7.08 µM [inhibitor, single point]
CCCCc1nc2cc(C(=O)N(C)Cc3ccc4nonc4c3)ccc2o1 |  | inconclusive: 0.708 µM [inhibitor, full curve, poor fit]
CC(C)CC(=O)OC[C@H]1O[C@@](COC(=O)CC(C)C)(O[C@H]2O[C@H](CO)[C@@H](O)[C@H](O)[C@H]2O)[C@@H](OC(=O)CC(C)C)[C@@H]1OC(=O)CC(C)C |  | inconclusive: 2.82 µM [inhibitor, single point]
CC1(C)[C@H](Cc2cc(CC3CCCCC3)on2)C[C@@H]1NC(=O)c1ccco1 |  | inconclusive: 56.2 µM [inhibitor, single point]
O=C(CN1CC2CC(C1)[C@H]1CCCC(=O)N1C2)N1CCCCC1 (some centres not stated) |  | inactive
COc1ccc(-c2cc(C[C@H]3CNCC[C@H]3CC(=O)N3CCN(c4ccccc4)CC3)no2)cc1 |  | inactive
Cc1cnc(Nc2cccc(CN3CCOCC3)c2)nc1Nc1cccc(S(=O)(=O)NC(C)(C)C)c1 |  | inactive and inconclusive: 708 nM [inhibitor, full curve, poor fit]
O=C(CCC1CCCC1)NC1CCN(C(=O)N2CC3CC(C2)[C@H]2CCCC(=O)N2C3)CC1 (some centres not stated) |  | inconclusive: 3.55 µM [inhibitor, single point]
CC[C@@H](C)[C@H](N)C(=O)N1Cc2ccccc2C1 |  | inconclusive: 39.8 µM [inhibitor, single point]
CN(Cc1ccc(C(F)(F)F)cc1)Cc1cccc(C(F)(F)F)c1 |  | inconclusive: 3.98 µM [inhibitor, single point]
CC(C)(C)c1cnc([C@@H]2COCCN2Cc2ccc(C(=O)O)cc2)[nH]1 |  | inconclusive: 11.2 µM [inhibitor, single point]
CN1CCc2c([nH]c3ccccc23)C12CCN(C(=O)c1ccnn1C)CC2 |  | inconclusive: 39.8 µM [inhibitor, partial curve, poor fit]
COCCN1C(=O)[C@H]2CN(Cc3cc(Cl)ccc3F)C[C@H]2C1=O |  | inconclusive: 39.8 µM [inhibitor, single point]
N/C(=N\N=C\c1ccc(Cl)cc1)N/N=C/c1ccc(Cl)cc1 |  | inconclusive: 39.8 µM [inhibitor, single point]
